Laboratory results published in the supplement of paper PMC3334620.
Over roughly 33,000 sequences, “E-score (-0.5 to 0.5)” has its median near -0.054; the highest 2% begin near 0.35. Some of the results follow.

Molecular target: T1, Stb5 (UniProt P38699)
T1 sequence: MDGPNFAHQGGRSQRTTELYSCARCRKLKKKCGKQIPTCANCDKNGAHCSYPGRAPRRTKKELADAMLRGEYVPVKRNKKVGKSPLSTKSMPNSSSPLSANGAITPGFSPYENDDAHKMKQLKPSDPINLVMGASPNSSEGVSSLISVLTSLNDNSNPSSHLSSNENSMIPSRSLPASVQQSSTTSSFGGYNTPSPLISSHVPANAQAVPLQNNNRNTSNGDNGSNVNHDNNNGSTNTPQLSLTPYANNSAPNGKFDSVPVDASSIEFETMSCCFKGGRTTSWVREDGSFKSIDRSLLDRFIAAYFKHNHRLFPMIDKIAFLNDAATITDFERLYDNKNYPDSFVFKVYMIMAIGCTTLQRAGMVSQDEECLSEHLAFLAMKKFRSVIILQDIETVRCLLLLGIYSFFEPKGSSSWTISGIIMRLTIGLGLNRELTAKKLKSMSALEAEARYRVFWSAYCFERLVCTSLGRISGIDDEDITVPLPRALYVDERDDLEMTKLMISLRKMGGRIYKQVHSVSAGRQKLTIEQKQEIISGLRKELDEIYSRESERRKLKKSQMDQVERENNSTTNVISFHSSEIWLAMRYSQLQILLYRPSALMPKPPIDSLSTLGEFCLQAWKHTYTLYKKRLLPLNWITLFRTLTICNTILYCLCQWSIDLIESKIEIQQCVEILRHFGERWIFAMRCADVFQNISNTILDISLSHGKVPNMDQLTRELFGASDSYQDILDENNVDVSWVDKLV
Assay: PBM E-score (8-mer binding enrichment) (E-score (-0.5 to 0.5)); higher = stronger / more preferred TF binding; most listed sequences are background and not binding sites
Conditions: protein concentration: 200 nM; construct: GST-full length
Experimental: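 Universal 'all 10-mer' protein binding microarrays (Agilent AMADID 015681) probed with GST-tagged S. cerevisiae TFs (full-length or DBD) made by in vitro transcription/translation (PURExpress), about 100-200 nM. Bound TF was detected with fluorescent anti-GST. Each ungapped 8-mer (which stands for itself and its reverse complement) is scored by the PBM enrichment score (E-score), a modified Wilcoxon-Mann-Whitney statistic from -0.5 to +0.5, computed with the Universal PBM Analysis Suite. Scale: above 0.35 generally sequence-specific binding.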

Sequence | PBM E-score
ACTTGGAA | -0.158
AATGCCAC | -0.0701
GCAAAGAC | -0.0627
AAACTTCG | 0.00189
AACAGACG | 0.0239
ACATCGGC | 0.266
GCATTCAC | 0.17
ACAATAGT | 0.0234
AAGAATAA | 0.0987
GGGACATA | 0.132
CCTTGTCG | -0.131
ATCTCATG | -0.131
AGGGCTCC | -0.087
AACTCAAG | -0.241
CGAAAGCG | 0.0309
GCGACCCC | 0.111
ACTTGGCG | -0.14
AGTTGGTA | -0.095
AAGAATAG | -0.0458
AATGGAAC | -0.102
ACCAGAGC | -0.135
GACAGGCC | -0.126
CGAAAGGC | 0.263
GCGGCAGA | 0.135
AGTTTGCC | -0.0358

Sequence | PBM E-score
AAAATTGA | -0.0781
CTACTGTA | -0.0223
TGGTCTAA | -0.13
CCCTACCA | -0.00019
CGCCGGTC | 0.346
CCGAGCCC | 0.00911
ATAGTTAA | -0.0344
GAAAGGAC | 0.0991
GTTGAGCA | -0.0536
GACAGCTC | -0.229
GATTGTGA | -0.0335
TACTCTCA | -0.276
CGAAGCGC | 0.161
CGTTTAAC | 0.0256
ACTAAACT | -0.102
AATTGGCT | -0.076
ATGACAAA | -0.305
CGAGCTAG | -0.112
AAGCCACC | -0.0661
CCTGAGAG | -0.241
ACCCGTTC | 0.196
AACCGCAT | 0.0436
ATCGCGAC | -0.0417
AGTTCGCA | -0.0245
CCCAACGG | 0.321

Sequence | PBM E-score
AGAGGACA | -0.204
ATCTAACC | -0.0185
CGAAGGCG | 0.0834
GTGTCATA | 0.0744
CCCCGGAG | 0.343
GTCACAAA | 0.00191
AATTCTCT | -0.088
CAGTTTGA | 0.0383
ACACCTGT | 0.0542
GCCGCTCC | 0.341
AAGGCGCT | 0.109
CGCTGCAA | -0.0161
TATAAACA | -0.0188
CGCTGACG | 0.142
TATGTGCA | -0.117
AAATTAAA | 0.0432
ACTGGCCA | -0.259
GTCTCCGA | 0.23
ACGAAACA | -0.163
AATCTGCC | 0.0955
GTCTGCCA | -0.175
GTACCCTA | -0.183
AACGTCTT | -0.229
GCATCAGA | 0.0292
TAAGCGGA | 0.209

Sequence | PBM E-score
CGTTAGCC | 0.0801
ACGCCACT | -0.0745
CCCAACCC | -0.148
CAGAACTA | 0.0155
ATCCAATA | -0.252
AGCTACCG | 0.0952
AGTGTACG | -0.0815
CCGTTCTC | 0.182
AGAGGGTA | -0.252
AACTGCTG | -0.198
AAATAGGA | 0.0364
CGCAGCCG | -0.0573
CACTGACG | -0.00028
GATAATTA | 0.121
CGCTCAAA | 0.0732
CTGCTTAA | -0.0795
CTGCCCAG | -0.0951
CCAGTTAG | -0.368
CTGAAGTA | -0.0991
ACAACGTG | -0.1
CAGCTAAG | -0.285
GGCTAGAC | -0.0653
CGGCAACG | 0.172
CTATCCTA | 0.00071
CGGTAATC | 0.25

Sequence | PBM E-score
AGCATCCA | -0.175
GCAAATCC | 0.121
ATGGTTAG | -0.0567
CTCCACAC | -0.288
AACCGGAG | 0.302
CTGCAAAG | -0.273
GGGGAGCA | 0.027
GCCGCCAC | 0.191
GCCTGTTA | -0.157
AGATGAAG | 0.0289
GGCAACCA | -0.0509
ACTCATGG | -0.226
ATTTCTTC | -0.0749
AGGGGCTG | -0.319
CCATTGCA | -0.0187
CTCGAACA | -0.31
CAATTGAC | -0.131
AGTTCTAC | -0.178
ACCGACCG | 0.346
CCGTAGCC | 0.114
ACTTACTG | 0.0687
CCACCGCC | 0.282
ATTTGGCA | -0.184
GAGACTCA | -0.104
GATACCGA | 0.321

Sequence | PBM E-score
GAGAGTAC | -0.0857
GGATACCA | 0.0741
AAGGTCGT | -0.196
AGGGAGTC | -0.305
AAAGCCTC | -0.0461
AGTGGAGC | -0.106
ATAAATCA | -0.129
CGGAGCTA | 0.446
AGGTGGCA | -0.0836
TATGCCAA | -0.191
CCGGTGAA | 0.307
AACTTGAC | -0.154
CTACGGAA | -0.0555
GCATTAGA | 0.00907
CCCTGCAC | -0.052
GCGCCGAC | 0.28
ATTTACCA | 0.101
ACAGTTGC | -0.201
CCGCTTCC | 0.229
CCACTTAA | -0.078
AGGTGCTC | -0.354
AAGAGATC | 0.0165
CATCTACG | 0.0874
AAACTCGC | -0.0595
AGCCCCAC | 0.065

Sequence | PBM E-score
ACAGTGGC | -0.15
GGGCTGGA | -0.153
CGTTCAAG | -0.00789
GCAGAGGA | -0.247
TCCCATAA | -0.245
AACACAGT | -0.194
TACCTCGA | -0.111
CAGTAACG | -0.0414
GTCGGCGA | 0.242
TGATCGAA | -0.163
CAGCTCAG | -0.221
AATGGTGT | -0.0334
CCTGTCCC | -0.175
ATATTTCC | 0.348
TATGCCGA | 0.294
ATGTCGTA | -0.313
AGAACCTG | -0.261
GATTAAAC | 0.221
CGTGTCCA | -0.174
TAACGATA | -0.224
AGGGACTC | -0.24
ACCAAGTG | -0.168
